The labels stand for the following.
B1: CM0042 (Dia-Fc-Dia) (bispecific antibody)
chain: MNLLLILTFVAAAVAEFEVQLVESGGGLVQPGGSLRLSCAASGFNIGSSSIHWVRQAPGKGLEWVASIYSAFASTSYADSVKGRFTISADTSKNTAYLQMNSLRAEDTAVYYCARYHFPFGFALDYWGQGTLVTVSSGGGGSDIQMTQSPSSLSASVGDRVTITCRASQSVSSAVAWYQQKPGKAPKLLIYSASSLYSGVPSRFSGSRSGTDFTLTISSLQPEDFATYYCQQGVYLFTFGQGTKVEIKLEDKTHTKV[sequence of human IgG1 Fc with C220S (EU numbers) not given]SGSETPGTSESATPESGGGEVQLVESGGGLVQPGGSLRLSCAASGFNISYSSIHWVRQAPGKGLEWVAYISSYYGYTYYADSVKGRFTISADTSKNTAYLQMNSLRAEDTAVYYCARAHYFPWAGAMDYWGQGTLVTVSSGGGGSDIQMTQSPSSLSASVGDRVTITCRASQSVSSAVAWYQQKPGKAPKLLIYSASSLYSGVPSRFSGSRSGTDFTLTISSLQPEDFATYYCQQYSWGPFTFGQGTKVEIK
B2: CM0299 (IgG-Dia) (bispecific antibody)
heavy: EVQLVESGGGLVQPGGSLRLSCAASGFNIHSSSIHWVRQAPGKGLEWVAATYSSFGSITYADSVKGRFTISADTSKNTAYLQMNSLRAEDTAVYYCARYHHPFGYALDYWGQGTLVTVSS[sequence of human IgG1 constant region not given]SGSETPGTSESATPESGGGEVQLVESGGGLVQPGGSLRLSCAASGFNISYSSIHWVRQAPGKGLEWVAYISSYYGYTYYADSVKGRFTISADTSKNTAYLQMNSLRAEDTAVYYCARAHYFPWAGAMDYWGQGTLVTVSSGGGGSDIQMTQSPSSLSASVGDRVTITCRASQSVSSAVAWYQQKPGKAPKLLIYSASSLYSGVPSRFSGSRSGTDFTLTISSLQPEDFATYYCQQYSWGPFTFGQGTKVEIK
light: DIQMTQSPSSLSASVGDRVTITCRASQSVSSAVAWYQQKPGKAPKLLIYSASSLYSGVPSRFSGSRSGTDFTLTISSLQPEDFATYYCQQGVYLFTFGQGTKVEIKRTVAAPSVFIFPPSDEQLKSGTASVVCLLNNFYPREAKVQWKVDNALQSGNSQESVTEQDSKDSTYSLSSTLTLSKADYEKHKVYACEVTHQGLSSPVTKSFNRGEC
B3: CM0301 (IgG-scFv) (bispecific antibody)
heavy: EVQLVESGGGLVQPGGSLRLSCAASGFNIHSSSIHWVRQAPGKGLEWVAATYSSFGSITYADSVKGRFTISADTSKNTAYLQMNSLRAEDTAVYYCARYHHPFGYALDYWGQGTLVTVSS[sequence of human IgG1 constant region not given]SGSETPGTSESATPESGGGDIQMTQSPSSLSASVGDRVTITCRASQSVSSAVAWYQQKPGKAPKLLIYSASSLYSGVPSRFSGSRSGTDFTLTISSLQPEDFATYYCQQYYWPITFGQGTKVEIKGTTAASGSSGGSSSGAEVQLVESGGGLVQPGGSLRLSCAASGFNISSYYIHWVRQAPGKGLEWVASIYSSYGYTSYADSVKGRFTISADTSKNTAYLQMNSLRAEDTAVYYCARTVRGSKKPYFSGWAMDYWGQGTLVTVSS
light: B2 light
B4: CM0300 (IgG-scFv) (bispecific antibody)
heavy: EVQLVESGGGLVQPGGSLRLSCAASGFNIHSSSIHWVRQAPGKGLEWVAATYSSFGSITYADSVKGRFTISADTSKNTAYLQMNSLRAEDTAVYYCARYHHPFGYALDYWGQGTLVTVSS[sequence of human IgG1 constant region not given]SGSETPGTSESATPESGGGDIQMTQSPSSLSASVGDRVTITCRASQSVSSAVAWYQQKPGKAPKLLIYSASSLYSGVPSRFSGSRSGTDFTLTISSLQPEDFATYYCQQYSWGPFTFGQGTKVEIKGTTAASGSSGGSSSGAEVQLVESGGGLVQPGGSLRLSCAASGFNISYSSIHWVRQAPGKGLEWVAYISSYYGYTYYADSVKGRFTISADTSKNTAYLQMNSLRAEDTAVYYCARAHYFPWAGAMDYWGQGTLVTVSS
light: B2 light

The target in the experiment is FZD1/2/4/5/7/8. Description: cell-based or functional assay.
Molecule B1 gave a % Wnt Maxima Avg of 33%, a Maximal Signal (% Wnt3a maxima) (% Wnt3a maxima) of 33 and a Topflash EC50 (nM) Avg of 0.9 nM.

With B2, the % Wnt Maxima Avg was 14%; the EC50 (nM), TOPFLASH assay turned out to be 0.1 nM; the Maximal Signal (% Wnt3a maxima) (% Wnt3a maxima) was found to be 14; the Topflash EC50 (nM) Avg was determined as 0.1 nM.

Take B3: the % Wnt Maxima Avg was 1%; the EC50 (nM), TOPFLASH assay amounted to 0.2 nM; the Maximal Signal (% Wnt3a maxima) (% Wnt3a maxima) is 1; the Topflash EC50 (nM) Avg worked out at 0.2 nM.

In the case of B4, the % Wnt Maxima Avg is 5%; the EC50 (nM), TOPFLASH assay turned out to be 0.3 nM; the Maximal Signal (% Wnt3a maxima) (% Wnt3a maxima) turned out to be 5; the Topflash EC50 (nM) Avg was determined as 0.3 nM.

Values taken from patent US20250270332A1.
